Measured values reported in PMC4336329 (PLoS ONE, 2015).
Out of some 310,000 compounds screened, about 2,200 (0.71%) showed an effect of 50% or more. Effects have a minus sign here. The list shows a part of the results.

biological target: human ether-à-go-go-related gene (hERG) potassium channel (human, UniProt Q12809); assay: primary screen, population patch clamp on CHO cells stably expressing hERG
Sequence (Q12809 whole entry, looked up): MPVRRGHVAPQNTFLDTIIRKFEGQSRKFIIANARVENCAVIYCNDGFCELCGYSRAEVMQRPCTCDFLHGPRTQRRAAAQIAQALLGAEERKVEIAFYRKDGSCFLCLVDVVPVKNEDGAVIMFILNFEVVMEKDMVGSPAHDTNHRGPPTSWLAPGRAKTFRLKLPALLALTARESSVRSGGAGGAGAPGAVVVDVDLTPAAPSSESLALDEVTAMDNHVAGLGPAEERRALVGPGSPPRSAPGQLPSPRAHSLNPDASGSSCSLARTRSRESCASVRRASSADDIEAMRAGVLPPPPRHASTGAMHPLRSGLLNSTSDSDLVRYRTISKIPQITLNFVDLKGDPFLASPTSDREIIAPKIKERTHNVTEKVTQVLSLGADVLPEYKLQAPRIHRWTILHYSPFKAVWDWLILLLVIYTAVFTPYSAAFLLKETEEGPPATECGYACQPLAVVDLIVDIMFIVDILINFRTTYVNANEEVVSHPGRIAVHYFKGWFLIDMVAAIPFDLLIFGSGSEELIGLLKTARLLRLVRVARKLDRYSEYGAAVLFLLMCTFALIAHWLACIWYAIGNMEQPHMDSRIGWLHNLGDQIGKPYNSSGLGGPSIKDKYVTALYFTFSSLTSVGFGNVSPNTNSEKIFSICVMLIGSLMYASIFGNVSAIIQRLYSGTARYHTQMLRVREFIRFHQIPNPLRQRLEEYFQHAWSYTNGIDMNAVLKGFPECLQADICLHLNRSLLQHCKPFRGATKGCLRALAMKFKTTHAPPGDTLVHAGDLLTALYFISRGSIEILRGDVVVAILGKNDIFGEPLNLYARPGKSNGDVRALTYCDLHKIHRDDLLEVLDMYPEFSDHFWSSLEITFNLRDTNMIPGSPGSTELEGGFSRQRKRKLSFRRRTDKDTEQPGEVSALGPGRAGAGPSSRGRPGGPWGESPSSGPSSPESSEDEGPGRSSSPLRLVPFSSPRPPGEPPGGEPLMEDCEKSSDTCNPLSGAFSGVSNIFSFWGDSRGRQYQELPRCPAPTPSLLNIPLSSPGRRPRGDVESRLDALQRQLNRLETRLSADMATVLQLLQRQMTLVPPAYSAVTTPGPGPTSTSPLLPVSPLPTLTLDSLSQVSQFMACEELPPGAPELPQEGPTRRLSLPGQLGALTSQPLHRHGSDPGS

SMILES	hERG current change (%, negative = inhibition) at 1uM
COc1ccc(C2NC(=O)N(C)C3=C2C(=O)CC(C)(C)C3)cc1OC (stereo not shown)	9.95%
Cc1cc(=S)[nH]c2ccccc12	14.4%
CC(C)Sc1nnc([C@H](Cc2c[nH]c3ccccc23)NC(=O)OC(C)(C)C)o1	0.773%
COc1ccc(NC(=S)N(Cc2ccc(Cl)cc2)Cc2ccc(C(=O)O)cc2)cc1Cl	1.05%
CN1CCN(S(=O)(=O)c2ccc(Cl)cc2)CC1	10.3%
CN(C)C(CNC(=O)CCOc1ccccc1)c1ccco1 (stereo not shown)	9.31%
CCOc1ccc(S(=O)(=O)NCCC(=O)OCC(=O)Nc2cc(C)on2)cc1	-32.8%
CSCCC(NC(=O)c1ccc(Cl)cc1Cl)C(=O)NCc1ccncc1 (stereo not shown)	4.15%
COc1ccc(S(=O)(=O)N(C)c2ccc(C(=O)N3CCCCC3)cc2)cc1	4.64%
Cc1cc(N2Cc3ccccc3C2)ccc1C=O	7.62%
Cc1ccccc1NC(=O)Cn1nnc(S(=O)(=O)c2ccc(C(C)(C)C)cc2)c1N	10.5%
Cc1ccc(NC(=O)CCCN2C(=O)NC(C)(C)C2=O)cc1	12.7%
COCCCN=Cc1c(-c2ccccc2)[nH]n(-c2nc3ccccc3s2)c1=O	-55.9%
CSc1nc(O)c(/C=C2\C=Nc3ccccc32)[nH]1	13%
CCCOc1ccc(/C(O)=C2/C(=O)C(=O)N(CCCOC)C2c2cccnc2)cc1 (stereo not shown)	-0.232%
Nc1ccc(/C=C/c2ccc3ncccc3c2)cc1	22.8%
CCOc1cc(/C=N/NC(=O)c2ccc(N(C)S(=O)(=O)c3ccccc3)cc2)ccc1OC	2.27%
CCCC(=O)Nc1cccc2c1CCCC2	17.7%
COc1ccc(OCCN2CCN(C(=O)c3ccc(OC)cc3)CC2)cc1	-90.6%
O=C(Nc1ccccc1N1CCCC1)c1ccc([N+](=O)[O-])o1	1.03%
CN(C)CCSC1c2ccccc2CSc2ccccc21.Cl (stereo not shown)	8.57%
CC(=O)c1cccc(NS(=O)(=O)c2ccc(-c3cnc(C4CC4)o3)cc2)c1	11.5%
COc1ccccc1C(=O)NC(=S)Nc1ccc(NC(=O)c2cccs2)cc1	6.17%
Cc1ccc(S(=O)(=O)N(CC(=O)NCCSc2ccccn2)c2ccc(C)c(C)c2)cc1	1%
Nc1c(N(Cc2ccco2)C(=O)c2cccc(Cl)c2)c(=O)[nH]c(=O)n1Cc1ccccc1	10.1%
